Experimental findings from PMC6919601, “Identification of Plasmodium dipeptidyl aminopeptidase allosteric inhibitors by high throughput screening” (PLoS ONE, 2019) are described below.

SMILES strings stand for the structures. Out of some 110,000 compounds screened, about 230 (0.21%) showed an effect of 50% or more. Some of the results follow.
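Further: 30 min substrate incubation versus DMSO and 10 µM JCP410 controls.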

The target in the assay is DPAP1 (Plasmodium falciparum, UniProt Q8IIJ9). The experiment in a line: primary screen, percent inhibition; read by cleavage of a fluorogenic dipeptide substrate; higher = more effect of the substance. More on the design: species or system P. falciparum D10 trophozoite lysates; single well.
Chain of DPAP1 (Q8IIJ9 whole entry, looked up): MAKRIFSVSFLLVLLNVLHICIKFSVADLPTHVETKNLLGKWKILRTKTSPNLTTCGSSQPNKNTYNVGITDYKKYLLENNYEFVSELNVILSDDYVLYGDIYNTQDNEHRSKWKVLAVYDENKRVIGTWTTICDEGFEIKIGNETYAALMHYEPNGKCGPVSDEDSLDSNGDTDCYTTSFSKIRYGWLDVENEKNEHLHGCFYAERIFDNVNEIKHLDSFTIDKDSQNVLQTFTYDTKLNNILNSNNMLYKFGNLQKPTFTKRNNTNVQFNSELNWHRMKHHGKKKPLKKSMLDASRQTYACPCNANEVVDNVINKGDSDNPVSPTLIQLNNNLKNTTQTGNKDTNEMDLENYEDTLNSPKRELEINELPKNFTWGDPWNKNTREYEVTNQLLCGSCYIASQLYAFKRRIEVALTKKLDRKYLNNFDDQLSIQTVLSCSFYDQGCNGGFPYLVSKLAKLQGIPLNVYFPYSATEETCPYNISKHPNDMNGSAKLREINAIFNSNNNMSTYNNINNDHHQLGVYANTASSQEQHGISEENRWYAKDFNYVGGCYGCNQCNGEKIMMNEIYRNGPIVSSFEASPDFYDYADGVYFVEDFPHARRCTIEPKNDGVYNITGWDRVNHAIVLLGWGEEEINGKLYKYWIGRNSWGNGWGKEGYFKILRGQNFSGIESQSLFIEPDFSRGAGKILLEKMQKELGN
For the molecule `Cc1cccc(C)c1OCC(O)CN(C)S(=O)(=O)O` (stereo not drawn), the “% Inhibition @ 10 uM” value worked out at 3.32%.

With `CCc1ccc2nc(N(CCN(C)C)C(=O)c3ccc(C(=O)OC)cc3)sc2c1`, the “% Inhibition @ 10 uM” value is on record as -1.95%.

`COC(=O)c1cc2oc3ccccc3c2n1Cc1cc(=O)n2ccccc2n1`: the “% Inhibition @ 10 uM” value was 4.83%.

With `Cc1ccc(S(=O)(=O)Nc2cccc(C(N)=O)c2)cc1`, the “% Inhibition @ 10 uM” value is given as -12.1%.

Take `CCN(CC)C(=O)C1=C(C)Nc2nc3ccccc3n2C1c1cc(OC)ccc1OC` (stereo not drawn): the “% Inhibition @ 10 uM” value is recorded as 4.85%.

For `O=C(NCC1(c2ccccc2)CCCC1)c1cc2ccccc2o1`, the “% Inhibition @ 10 uM” value is given as 2.3%.

Regarding `Nc1c(C(=O)c2cccs2)sc2nc(-c3cccs3)ccc12`, the “% Inhibition @ 10 uM” value stood at 0.385%.

On to `COc1ccccc1-n1c(CNCC2CCCO2)nc2ccccc2c1=O` (stereo not drawn), for which the “% Inhibition @ 10 uM” value is listed as 3.58%.

For `COc1ccc(OCc2cccc(C(=O)N3N=C(C(F)F)CC3(O)C(F)F)c2)cc1` (stereo not drawn), the “% Inhibition @ 10 uM” value stood at 1.39%.

As to `c1ccc2nc3c(nc2c1)c1ccccc1n3CN1CCOCC1`, the “% Inhibition @ 10 uM” value was -2.18%.

`COc1ccc(C2=NN3C(C2)c2cc(OC)ccc2OC3c2cccnc2)cc1` (stereo not drawn): the “% Inhibition @ 10 uM” value worked out at 27%.

Take `O=C(Nc1noc2ccccc12)c1ccc(CS(=O)(=O)Cc2ccccc2F)o1`: the “% Inhibition @ 10 uM” value was found to be 6.76%.

As for `CCCCC1=NN(C(=O)c2cccc(OC)c2)C(O)(C(F)(F)F)C1` (stereo not drawn), the “% Inhibition @ 10 uM” value is listed as 0.673%.

Consider `CC(C)Cn1c(=O)c2sccc2n2c(CCCC(=O)NC(C)C34CC5CC(CC(C5)C3)C4)nnc12` (stereo not drawn), for which the “% Inhibition @ 10 uM” value is -2.72%.

As for `N#CC1=C(N)Oc2cc(O)ccc2C1c1cccc([N+](=O)[O-])c1` (stereo not drawn), the “% Inhibition @ 10 uM” value worked out at 3.32%.

`O=C(Nc1ccccc1)c1cnc2ccccc2n1`: the “% Inhibition @ 10 uM” value was -1.04%.

With `O=c1cc(Cl)c2cc3c4c(c2o1)CCCN4CCC3`, the “% Inhibition @ 10 uM” value was found to be 3.15%.

Consider `CCOc1ccc(NC(=O)C(C)Sc2nc3ccccc3[nH]2)cc1` (stereo not drawn), for which the “% Inhibition @ 10 uM” value is reported as -0.519%.

As for `COC(=O)/C(C#N)=C/c1c(Oc2cc(C)ccc2C(C)C)nc2ccccn2c1=O`, the “% Inhibition @ 10 uM” value amounted to 11%.

Consider `CC(=O)c1c(C)n(C2CCCCC2)c2ccc(O)cc12`, for which the “% Inhibition @ 10 uM” value is -5.28%.

For the molecule `COc1ccc(NC(=O)c2ccccc2NC(=O)CCC(=O)O)cc1`, the “% Inhibition @ 10 uM” value is listed as 3.04%.

Regarding `Cc1sc2ncnc(SCC(=O)NCc3ccco3)c2c1C`, the “% Inhibition @ 10 uM” value worked out at 0.222%.

Take `O=C(c1ccc(Cl)c(Cl)c1)N1CCN(c2nc(-c3ccccc3)cs2)CC1`: the “% Inhibition @ 10 uM” value was 0.9%.

Consider `COc1ccc(/C=C2\SC(Nc3ccc(O)cc3)=NC2=O)cc1OC`, for which the “% Inhibition @ 10 uM” value is -6.25%.

As to `C=CCn1c(=N)c(C(=O)NC2CCCCC2)cc2c(=O)n3cccc(C)c3nc21`, the “% Inhibition @ 10 uM” value came out at 1.97%.

Regarding `COC(=O)c1sc(NC(=O)C2CCC2)c(C(=O)OC)c1C`, the “% Inhibition @ 10 uM” value was -5.81%.

In the case of `C/C(=C\c1ccccc1)CN1CCCC(CO)C1` (stereo not drawn), the “% Inhibition @ 10 uM” value is reported as -5.26%.

With `Cc1cc(-c2ccc(NC(=O)c3ccc([N+](=O)[O-])cc3)c(C)c2)ccc1NC(=O)c1ccc([N+](=O)[O-])cc1`, the “% Inhibition @ 10 uM” value was found to be 2.54%.

In the case of `Cc1ccc(NC(=O)Cn2cc(C#N)c3ccccc32)cc1`, the “% Inhibition @ 10 uM” value is recorded as -0.968%.

Turning to `COCCN1C(=O)c2ccccc2C(C(=O)NCCCN2CC(C)CC(C)C2)C1c1cccs1` (stereo not drawn), the “% Inhibition @ 10 uM” value is reported as 7.38%.

In the case of `O=C(NCc1ccccc1)C(c1ccccc1)c1ccccc1`, the “% Inhibition @ 10 uM” value came out at 4.41%.

As for `Cc1ccccc1-c1nc(CS(=O)CC(=O)NC2CCC(C)CC2)c(C)o1` (stereo not drawn), the “% Inhibition @ 10 uM” value is given as -1.05%.

As for `Cc1ccc(Cn2ccc(NC(=O)CCC(=O)O)n2)cc1`, the “% Inhibition @ 10 uM” value is given as -1.1%.

Consider `O=C(CN1CCOCC1)N1N=C(c2cccs2)CC1c1cccs1` (stereo not drawn), for which the “% Inhibition @ 10 uM” value was -6.17%.

On to `CCOC(=O)C1=C(C)N=c2s/c(=C\c3ccc(C)cc3)c(=O)n2C1c1ccc(C)cc1` (stereo not drawn), for which the “% Inhibition @ 10 uM” value is on record as -3.77%.

With `CC(=O)c1cc(-c2ccccc2)n(CC(=O)Nc2nnc(N(C)Cc3ccccc3)s2)c1C`, the “% Inhibition @ 10 uM” value is reported as 4.83%.

As for `CC(C)(C)c1cc(C(=O)O)nn1-c1ccccc1`, the “% Inhibition @ 10 uM” value amounted to 3.53%.

`O=C(c1cnn2c1NC(c1ccc(Br)cc1)CC2C(F)(F)F)N1CCOCC1` (stereo not drawn): the “% Inhibition @ 10 uM” value is on record as 0.746%.

For the molecule `CS(=O)(=O)N(CC(=O)Nc1ccc2ccccc2c1)c1cccc2ccccc12`, the “% Inhibition @ 10 uM” value is -5%.

For the molecule `CC(C)CNc1nc(Oc2ccc(OC(C)C)nn2)nc(N2CCOCC2)n1`, the “% Inhibition @ 10 uM” value is reported as 0.401%.

For the molecule `O=c1c2cccnc2n(Cc2cccc(C(F)(F)F)c2)c(=O)n1Cc1ccc(F)cc1`, the “% Inhibition @ 10 uM” value is -1.66%.

As for `Cc1noc(/C=C/N(C)C)c1S(=O)(=O)N1CCC(C(=O)NC(C)(C)C)CC1`, the “% Inhibition @ 10 uM” value is -8.42%.

As to `Cc1cc(Br)cc2c1N(C)C(=O)C2=O`, the “% Inhibition @ 10 uM” value is on record as -6.46%.

For `O=C1NC(=O)N(CCc2ccc(F)cc2)C(=O)/C1=C/c1c[nH]c2ccccc12`, the “% Inhibition @ 10 uM” value turned out to be 2.09%.

As for `COc1ccc(C2C3=C(O)CCCC3=Nc3ncnn32)c(OC)c1` (stereo not drawn), the “% Inhibition @ 10 uM” value is -1.62%.

In the case of `CSc1ccc(/C=C/C2=CC(C)(C)NC(S)=N2)cc1`, the “% Inhibition @ 10 uM” value is recorded as -3.39%.

With `CC1=C(C(=O)N(C)C)C(c2ccccc2F)n2c(nc3ccccc32)N1` (stereo not drawn), the “% Inhibition @ 10 uM” value was 1.73%.

For `Cc1oc(-c2ccc(Cl)cc2)nc1CN1CCC(C(=O)NCCCN(C)Cc2ccccc2)CC1`, the “% Inhibition @ 10 uM” value was 3.93%.
